Test results: the RNAGym collection of RNA variant scans (doi:10.1093/nar/gkz1192)
Read counts are not given, so values of variants with three or more changes are uncertain.

B1: CPEB3 Ribozyme (parent)
chain: UAACAGGGGGCCACAGCAGAAGCGUUCACGUCGCAGCCCCUGUCAGAUUCUGGUGAAUCUGCGAAUUCUGCUGUAUAUCUC

Variants of: B1
Assay: self-cleavage, relative activity (ratio to wild type); higher = more cleavage; in vitro, sequencing
Outline: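 After error-prone PCR and barcoding, CPEB3 ribozyme mutant libraries were transcribed with T7 RNA polymerase at 37°C for 5 hours, then given 15 min with DNase I before an EDTA stop, and they cleaved during both steps. Reverse transcription with template switching preceded Illumina sequencing. Relative activity divides a variant's cleaved/total read fraction by the unmutated ribozyme's. At least 5 reads were required per variant, and three batches were averaged.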

**Q.** With CAACAGGGGGCCACAGCAAAAGCGUUCACGUCGCAGCCCCUGUCAGAUACUGGUGAAUCUGCGAGUUCUGCUGUAUAUCUC [U1C G19A U49A A65G] as the variant, how does the self-cleavage read?
**A.** 0.16

**Q.** With CAACAGGGGGCCACAGCAUAAGCGUUCACGUCGCAGCCCCUGUCAGAUUCUGGUGAAUCUGCGAAUCCAGCUGUAUAUCUC [U1C G19U U67C U69A] as the variant, how does the self-cleavage read?
**A.** 0.05

**Q.** For CAACAGGGGGCCACAGCAGAAACGUUCACGACGCAGCCCCUGUCAGAUUCUGGUGAAUCUGCGAAUUCUGCUGUAUAUCUC [U1C G22A U31A], which self-cleavage is on record?
**A.** 0.16

**Q.** Which self-cleavage does the source give for CAACAGGGGGCCACAGCAGAAGCAUUCACGUCGCAGCCCCUGUCAGAUUCUGGUGGAUCUGCGAAUUCUACUGUAUAUCUC [U1C G24A A56G G70A] here?
**A.** 0.05

**Q.** With CAACAGGGGGCCACAGCAGAAGCAUUCACGACGCGGCCCUUGUCAGACUCUGGUGAAUCUGCGAACUCUGCUGUAUAUCUC [U1C G24A U31A A35G C40U U48C U66C] as the variant, how does the self-cleavage read?
**A.** 0.07

**Q.** Which self-cleavage does the source give for CAACAGGGGGCCACAGCAGAAGCUUUCGCGCCGCAGCCCCUGCCAGAUUCUGGUGAAUCUGCGGAUUCUGCUGUAUAUCUC [U1C G24U A28G U31C U43C A64G] here?
**A.** 0.17

**Q.** Which self-cleavage does the source give for CAACAGGGGGCCACAGCAGAAGCGUUCACAUCGCAGCCCCUGUCAGAUUCUGGUGAAUCUGCGAAUUCUGCUGCAUAUCUC [U1C G30A U74C] here?
**A.** 0.09

**Q.** For CAACAGGGGGCCACAGCAGAAGCGUUCACCUCGCAGCCCCUGUCAGAUUCUGGUGAAUCUGCGGAUUCUGCUGUAUAUCUC [U1C G30C A64G], which self-cleavage is on record?
**A.** 0.24

**Q.** Which self-cleavage does the source give for CAACAGGGGGCCACAGCAGAAGCGUUCACUUCGCAGCCCCUGUCAGAUUCUGGUGAAUCUGCGUAUUCUGCUGUAUAUCUC [U1C G30U A64U] here?
**A.** 0.19

**Q.** Which self-cleavage does the source give for CAACAGGGGGCCACAGCAGAAGCGUUCACUUCGCAGCCCCUGUCAGAUUCUGGUGAAUCUGCGAACUCUGCUGUAUAUCUC [U1C G30U U66C] here?
**A.** 0.18

**Q.** Which self-cleavage does the source give for CAACAGGGGGCCACAGCAGAAGCGUUCACGUCACUGCCACUGUCAGAUUCUGGUGAAUCUGCGAAUUCUGCUGUUUAUCUC [U1C G33A A35U C39A A75U] here?
**A.** 0.05

**Q.** With CAACAGGGGGCCACAGCAGAAGCGUUCACGUCACAGCCCCUGUCAGGUUCUGGUGUGUCUGCGAAUUCUGCUGUAUACCUC [U1C G33A A47G A56U A57G U78C] as the variant, how does the self-cleavage read?
**A.** 0.05

**Q.** For CAACAGGGGGCCACAGCAGAAGCGUUCACGUCACAGCCCCUGUCAGAUUCUGGUGGGUCUGCGAAUUCUGCUGUAUAUCUC [U1C G33A A56G A57G], which self-cleavage is on record?
**A.** 0.08

**Q.** With CAACAGGGGGCCACAGCAGAAGCGUUCACGUCACAGCCCCUGUCAGACUCUGGUGAAUCUGCGAAUCCUGCUGUAUACCUC [U1C G33A U48C U67C U78C] as the variant, how does the self-cleavage read?
**A.** 0.07

**Q.** For CAACAGGGGGCCACAGCAGAAGCGUUCACGUCACAGCCCCUGUCAGAUUCUGGUGAAUCUGCGAAUUCAGCUGUAUACCUC [U1C G33A U69A U78C], which self-cleavage is on record?
**A.** 0.06

**Q.** For CAACAGGGGGCCACAGCAGAAGCGUUCACGUCACAGCCCCUGUCAGAUUCUGGUGAAUCUGCGAAUUCUGCGGUAUAUCUC [U1C G33A U72G], which self-cleavage is on record?
**A.** 0.06

**Q.** With CAACAGGGGGCCACAGCAGAAGCGUUCACGUCGCAACCCCUGUCAGAUUCUGGUGAAUCUGCGGAUUCUGCUGUAUAUCUC [U1C G36A A64G] as the variant, how does the self-cleavage read?
**A.** 0.13

**Q.** With CAACAGGGGGCCACAGCAGAAGCGUUCACGUCGCAGCCCCUACCCGAUUCUGGUGAGUCUGCGAAUUCUGCUGUAUAUCUC [U1C G42A U43C A45C A57G] as the variant, how does the self-cleavage read?
**A.** 0.05

**Q.** With CAACAGGGGGCCACAGCAGAAGCGUUCACGUCGCAGCCCCUAUCAGAUUCUGGUGAAUCUGCGAACUCUGCUGUAUAUCUC [U1C G42A U66C] as the variant, how does the self-cleavage read?
**A.** 0.32

**Q.** For CAACAGGGGGCCACAGCAGAAGCGUUCACGUCGCAGCCCCUGUCAGAUUCUGCUGAAUCUGCGAAUUCAGCUGUAUAUCUC [U1C G53C U69A], which self-cleavage is on record?
**A.** 0.29

**Q.** For CAACAGGGGGCCACAGCAGAAGCGUUCACGUCGCAGCCCCUGUCAGAUUCUGGUUAAUCUGCGAACUCUGCUGUAUAUCUC [U1C G55U U66C], which self-cleavage is on record?
**A.** 0.1

**Q.** For CAACAGGGGGCCACAGCAGAAGCGUUCACGUCGCAGCCCCUGUCAGAUUCUGGUGAAUCUACGAUUUCUGCUGUAUAUCUC [U1C G61A A65U], which self-cleavage is on record?
**A.** 0.1

**Q.** Which self-cleavage does the source give for CAACAGGGGGCCACAGCAGAAGCGAUCACGUCGCGGCCCCCGUCAGAUUCUGGUGAAUCUGCGAAUUCAGCUGCAUAUCUC [U1C U25A A35G U41C U69A U74C] here?
**A.** 0.13

**Q.** Which self-cleavage does the source give for CAACAGGGGGCCACAGCAGAAGCGAUCACGUCGCAGCCUCUGUCUGAUUCUGGUGAGUCUGCGAAUUCUGCUGUAUAGCUC [U1C U25A C39U A45U A57G U78G] here?
**A.** 0.05

**Q.** With CAACAGGGGGCCACAGCAGAAGCGCUCGCGUCGCAGCCCCUGUCAGAUUCUGGUGAGUCUGCGAAUUCUGCUGUAUAUCUC [U1C U25C A28G A57G] as the variant, how does the self-cleavage read?
**A.** 0.06

**Q.** For CAACAGGGGGCCACAGCAGAAGCGCUCGCGUCGCAGCCACUGUCAGACUCUGGUGAAUCUGCGAAUUCUGCUGUAUAUCUC [U1C U25C A28G C39A U48C], which self-cleavage is on record?
**A.** 0.06

**Q.** Which self-cleavage does the source give for CAACAGGGGGCCACAGCAGAAGCGCUCACGUCGCGGCCCCUGUCGGAUUCUGGCGAAUCUGCGAAUUCUGCUGUAUAUCUC [U1C U25C A35G A45G U54C] here?
**A.** 0.35

**Q.** With CAACAGGGGGCCACAGCAGAAGCGCUCACGUCGCAGCCCCUGUCAGAUUCUGGUGAAUCUGCGAAUUCUGCUGUGUAUCUC [U1C U25C A75G] as the variant, how does the self-cleavage read?
**A.** 0.26

**Q.** For CAACAGGGGGCCACAGCAGAAGCGCUUACGUCGCAGCCCCUGUCAGAUUCUGGUGAAUCUGCGAAUUCUGCUGUAUAUCUC [U1C U25C C27U], which self-cleavage is on record?
**A.** 0.43

**Q.** For CAACAGGGGGCCACAGCAGAAGCGCUCACGUCGCAGCCCCUGUCAGAUUCUGGUGAAUCUGUGAAUUCUGCUGUAUAUCCU [U1C U25C C62U U80C C81U], which self-cleavage is on record?
**A.** 0.06

**Q.** For CAACAGGGGGCCACAGCAGAAGCGCUCACAUCGCAGCCCCUGUCAGAUUCUGGUGGAUCUGCGAAUUCUGCUGUAUAUCUC [U1C U25C G30A A56G], which self-cleavage is on record?
**A.** 0.1

**Q.** Which self-cleavage does the source give for CAACAGGGGGCCACAGCAGAAGCGCUCACGUCGCAUCCCCUGUCAGAUUCUGGUGGAUCUGCGAAUUCUGCUGUAUAUCUC [U1C U25C G36U A56G] here?
**A.** 0.13

**Q.** With CAACAGGGGGCCACAGCAGAAGCGCUCACGACGCAGCCCCUGUCAGAUUCUGGUGAAUUUGCGAAUUCUGCUGUACUUCUC [U1C U25C U31A C59U U76C A77U] as the variant, how does the self-cleavage read?
**A.** 0.51

**Q.** Which self-cleavage does the source give for CAACAGGGGGCCACAGCAGAAGCGCUCACGACGCAGCCCCUGUCAGAUUCUGGUGAAUCUGCGAAUUCUACAGUAUAUCUU [U1C U25C U31A G70A U72A C81U] here?
**A.** 0.04
